Reference: the supplement of paper PMC3334620
In all, about 33,000 sequences were measured (“E-score (-0.5 to 0.5)”: median about -0.012, highest 2% from about 0.29 on). The list shows a part of the results.

molecular target: T1, Ybr033w (UniProt P38073); assay: PBM E-score (8-mer binding enrichment) (E-score (-0.5 to 0.5)); higher = stronger / more preferred TF binding; most listed sequences are background and not binding sites; conditions: protein concentration: 200 nM; construct: GST-full length
T1 sequence: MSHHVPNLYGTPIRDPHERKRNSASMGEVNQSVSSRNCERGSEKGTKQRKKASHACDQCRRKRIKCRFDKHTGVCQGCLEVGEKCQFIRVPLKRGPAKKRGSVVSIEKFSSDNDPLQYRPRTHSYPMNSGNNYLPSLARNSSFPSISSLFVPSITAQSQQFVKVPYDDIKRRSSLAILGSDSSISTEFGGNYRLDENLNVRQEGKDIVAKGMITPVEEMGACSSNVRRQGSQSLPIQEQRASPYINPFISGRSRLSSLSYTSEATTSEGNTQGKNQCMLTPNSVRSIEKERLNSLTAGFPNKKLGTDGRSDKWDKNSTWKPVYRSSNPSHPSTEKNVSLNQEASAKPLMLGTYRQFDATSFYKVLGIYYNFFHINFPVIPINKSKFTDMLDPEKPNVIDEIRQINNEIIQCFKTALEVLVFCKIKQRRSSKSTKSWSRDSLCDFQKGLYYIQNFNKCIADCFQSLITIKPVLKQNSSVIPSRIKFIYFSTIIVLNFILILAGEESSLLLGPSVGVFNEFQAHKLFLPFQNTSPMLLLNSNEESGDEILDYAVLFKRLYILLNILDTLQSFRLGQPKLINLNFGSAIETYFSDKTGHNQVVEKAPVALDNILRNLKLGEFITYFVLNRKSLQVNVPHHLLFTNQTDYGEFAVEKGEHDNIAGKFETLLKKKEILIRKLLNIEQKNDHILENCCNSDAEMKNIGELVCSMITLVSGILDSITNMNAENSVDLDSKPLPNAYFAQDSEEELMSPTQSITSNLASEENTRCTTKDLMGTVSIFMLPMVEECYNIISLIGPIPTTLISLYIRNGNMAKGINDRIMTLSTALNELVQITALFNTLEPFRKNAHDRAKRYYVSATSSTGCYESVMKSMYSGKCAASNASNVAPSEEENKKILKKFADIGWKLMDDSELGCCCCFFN
Method in brief: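 Using PURExpress in vitro transcription/translation, GST-tagged yeast transcription factors were made in full-length or DNA-binding-domain form. These were applied at about 100-200 nM to double-stranded universal all-10-mer Agilent arrays, and bound protein was detected with fluorescent anti-GST. Scans were normalised with masliner before the Universal PBM Analysis Suite assigned E-scores to ungapped eight-base words pooled with their reverse complements.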

Point of comparison: GCCGGAGC, “PBM E-score” value -0.177. Against it:
- ATACGAGG — higher, -0.0951
- CGTCGCGC — higher, -0.00948
- GGACGATA — higher, 0.0598
- GCCAATAC — higher, -0.106
- AATCAGGA — higher, -0.0223
- AGCTGCCC — higher, -0.15
- AGCGTAGA — higher, -0.102
- ATAAGTGA — higher, 0.111
- ACAACGGA — higher, 0.186
- ATCACATG — higher, 0.0416
- GACCCGCC — lower, -0.188
- CTGATCCC — lower, -0.291
- CTACATAG — higher, 0.0985
- CCCCTCGG — lower, -0.34
- AGATGGCT — higher, -0.132
- AAGCTCAC — higher, -0.0473
- ATTCATTG — higher, 0.181
- GCTTGCGA — higher, 0.0983
- ACCACGAC — higher, -0.00188
- CCCGAACG — higher, -0.161
- CAAAATGG — higher, 0.184
- AGCGCTTC — higher, 0.016
- ACCCGGGT — lower, -0.239
- CACTTGGG — higher, -0.0516
- TAACGGAA — higher, 0.153
- ACGGGACC — lower, -0.24
- CTCGAGGA — higher, -0.147
- ACATGGTG — higher, 0.119
- AAGAGCAT — higher, -0.0303
- AGTATCAG — higher, 0.0699
- ATGGCAAG — higher, -0.0226
- AAATGTTC — higher, 0.346
- AACCCATG — higher, -0.0578
- ATTCCGCA — higher, 0.00897
- CTTTGAGA — higher, 0.203
- CGTTACGC — higher, -0.0649
- TGCCACAA — higher, 0.0612
- CAACATTC — higher, -0.148
- CCCCCTTC — lower, -0.43
- CTAAAAGC — lower, -0.217
- ACTTGCTC — higher, 0.00803
- CATTCACA — higher, 0.179
- CTCTTCTC — higher, -0.149
- CCCAGGCG — higher, -0.141
- ACCATAAT — higher, 0.154
- CATGTTTA — higher, 0.154
- ACCTGTTC — higher, 0.0242
- AAAGACAA — higher, 0.215
- AACGGTTC — higher, -0.0588
- CACAGTGA — higher, 0.0752
- CATGTGGG — higher, -0.0644
- GTCAGTTA — higher, -0.00637
- ACACCATC — higher, 0.0756
- AGCACAAT — higher, 0.0444
- GTAATAAA — higher, 0.198
- CCGGCAAA — higher, 0.0998
- GCACGTTA — higher, -0.06
- ATCTACTG — higher, 0.143
- ACCGACGT — higher, 0.114
- GGCACGAC — higher, -0.0797
- AAGATTGG — higher, 0.133
- AAATTCTG — higher, 0.287
- ACCTAGTG — higher, 0.0772
- CAACTTCC — higher, 0.116
- CACAGCTC — higher, -0.0709
- AGAGACTA — higher, -0.0151
- AAATGCAG — higher, 0.024
- AGTTTGCA — higher, 0.0409
- GCGCCATA — higher, -0.0196
- TCTTGCCA — the same, -0.177
- TCAGGGAA — higher, 0.0109
- AATGGGTC — lower, -0.239
- CACAGATC — higher, -0.00409
- CGTCGTAA — lower, -0.191
- CCGATCCC — lower, -0.308
- CGCTGGCA — higher, -0.0391
- AGGGATTC — higher, 0.0761
- CAGCATCG — higher, -0.136
- CCATATGC — higher, 0.0157
- CCCCATAA — higher, -0.102
- CCTATTAG — higher, 0.0425
- AATATGCG — higher, 0.0344
- AAGCCCTG — higher, -0.0215
- AATTTTGC — higher, 0.142
- GAAATGAC — higher, 0.135
- GCAGGACC — higher, -0.155
- CCCATTCG — higher, -0.0351
- GTTTCCGA — higher, 0.2
- CCACTATA — higher, 0.0526
- TGGTCGAA — lower, -0.209
- AGTGAACA — higher, 0.00583
- TAGAAATA — higher, 0.211
- GTTGTTGA — higher, 0.148
- CGCTTTAG — higher, -0.0236
- GATTTGTA — higher, 0.129
- AGAATGCC — higher, -0.0863
- ACGGATAG — higher, 0.0372
- GGAACTGA — higher, -0.112
- CGCTTCTC — lower, -0.18
- GACTAATA — higher, 0.267
- CCAGAGCC — higher, -0.0997
- ATGTAAGG — higher, 0.141
- CAGCGTCG — higher, -0.0932
- ACGGCCGA — higher, -0.0148
- ACCTGTCC — lower, -0.275
- CTGGCCAC — lower, -0.255
- GATCTATA — higher, 0.157
- AGTTAGCC — higher, 0.102
- CAAACCCG — higher, -0.162
- CAGGAGGC — lower, -0.202
- GCCATCGA — higher, 0.0443
- CGGCAAAA — higher, -0.0196
- CACGAGGC — higher, -0.0463
- CAAGGTAG — higher, -0.0797
- ACGAGGCA — higher, -0.0799
- GGGGTCCA — lower, -0.328
- GCAAAAGC — higher, 0.0476
- CGGTCGTA — higher, 0.0625
- CTTCGGTC — higher, -0.00957
- ATCTAAAT — higher, 0.277
- CTTTCGCA — higher, -0.0327
- AACTAAAC — higher, 0.167
- CGCCGGAG — higher, -0.106
- AGTGAACG — higher, 0.0746
- CCATAGTA — higher, 0.0224
- CTGCTACC — higher, -0.0245
- ATTCTCGA — higher, 0.142
- GCTTAGTA — higher, 0.139
- CAATTACC — higher, 0.093
- ATCGTGAC — higher, -0.0158
- AGCGATTC — higher, 0.0209
- AGAGGCCC — lower, -0.33
- ATTTTATC — higher, 0.325
- GAGGTTAA — higher, 0.0431
- GCCAACCC — lower, -0.186
- AAATACGA — higher, 0.212
- ACGCTACC — higher, -0.173
- ACTCCTTG — higher, 0.0195
- TACATCGA — higher, 0.111
- ATCGGGTA — higher, -0.0306
- CTTACGCC — higher, -0.0386
- AGGAATCC — higher, -0.0666
- CCAGTTCG — higher, -0.123
- CAGGCCCA — lower, -0.268
- CCTGCGCA — lower, -0.185
- GCCTAAAA — higher, 0.0509
- ATCGAAAC — higher, 0.0901
- GTACCAAC — higher, 0.043
- ACGCTGAC — higher, -0.00817
- CCGTCCTA — higher, -0.117
- ACAGCTAT — higher, 0.0739
- ACGCGTTG — higher, -0.0239
- CAGTGACG — higher, -0.0112
- GCTGTTAA — higher, 0.0854
- CGTGTGAG — lower, -0.225
- CATCGACC — higher, -0.0962
- ACGGCACT — higher, -0.0495
- AAAACTCA — higher, 0.216
- GAATGATA — higher, 0.232
- AAGCAATT — higher, 0.223
- AGATGTGA — higher, 0.183
- GCATTTTA — higher, 0.197
- TATGAAGA — higher, 0.193
- CTCCGTTC — higher, -0.0235
- TAGCATCA — higher, 0.176
- TCCCAAAA — higher, 0.114
- GCATCAGC — higher, -0.0788
- AATCTAGC — higher, -0.0418
- CACAGACC — higher, -0.0503
- CAAGCAGG — higher, -0.111
- AATCTGAA — higher, 0.135
